# According to article PMC4336329 (PLoS ONE, 2015):
# Screen size: about 310,000 compounds; about 14,000 (4.5%) showed an effect of 50% or more. The effect is printed as a negative number. Some of the results follow.
# Molecular target: human ether-à-go-go-related gene (hERG) potassium channel (human, UniProt Q12809)
# Test: primary screen, population patch clamp on CHO cells stably expressing hERG
# 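Also: peak tail current of the secondary pulse compared with the same well before compound.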
# Sequence of human ether-à-go-go-related gene (hERG) potassium channel (Q12809 whole entry, looked up): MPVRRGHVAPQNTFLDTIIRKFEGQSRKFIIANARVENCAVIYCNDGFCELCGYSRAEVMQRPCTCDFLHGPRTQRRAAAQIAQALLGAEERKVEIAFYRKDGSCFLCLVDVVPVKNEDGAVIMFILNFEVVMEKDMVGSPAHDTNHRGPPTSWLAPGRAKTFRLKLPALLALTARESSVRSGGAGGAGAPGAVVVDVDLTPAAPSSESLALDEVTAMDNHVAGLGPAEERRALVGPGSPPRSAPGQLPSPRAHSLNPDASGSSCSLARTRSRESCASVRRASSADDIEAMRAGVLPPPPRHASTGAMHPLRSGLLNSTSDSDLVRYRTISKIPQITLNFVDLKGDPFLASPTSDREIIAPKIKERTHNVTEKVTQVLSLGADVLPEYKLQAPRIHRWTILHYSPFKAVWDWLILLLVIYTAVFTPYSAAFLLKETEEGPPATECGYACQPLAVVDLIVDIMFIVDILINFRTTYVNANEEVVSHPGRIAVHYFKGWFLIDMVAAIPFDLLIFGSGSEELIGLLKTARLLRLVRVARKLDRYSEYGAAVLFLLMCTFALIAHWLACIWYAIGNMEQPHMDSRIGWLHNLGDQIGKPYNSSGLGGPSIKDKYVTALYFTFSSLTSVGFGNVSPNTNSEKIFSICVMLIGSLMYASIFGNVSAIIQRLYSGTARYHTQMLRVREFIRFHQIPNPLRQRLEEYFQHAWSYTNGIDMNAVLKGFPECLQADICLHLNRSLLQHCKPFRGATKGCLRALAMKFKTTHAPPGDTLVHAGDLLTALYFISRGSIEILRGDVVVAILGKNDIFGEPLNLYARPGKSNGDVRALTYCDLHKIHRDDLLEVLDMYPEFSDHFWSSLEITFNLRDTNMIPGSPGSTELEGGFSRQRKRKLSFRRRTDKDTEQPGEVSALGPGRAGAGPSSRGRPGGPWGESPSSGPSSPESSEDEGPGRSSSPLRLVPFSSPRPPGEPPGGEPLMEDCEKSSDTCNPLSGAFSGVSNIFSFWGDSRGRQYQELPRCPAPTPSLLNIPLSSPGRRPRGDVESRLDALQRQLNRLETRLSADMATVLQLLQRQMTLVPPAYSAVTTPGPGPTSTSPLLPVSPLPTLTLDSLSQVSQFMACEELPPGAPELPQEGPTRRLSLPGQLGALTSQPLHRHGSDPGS
row,Compound,"hERG current change (%, negative = inhibition) at 10uM"
1,CCOC(=O)C1(CCc2ccccc2)CCN(CC(O)CO)CC1 (stereo not shown),-40.3%
2,CCC(C)NC(=O)c1ccc(CSCc2ccccc2Cl)o1 (stereo not shown),-0.946%
3,c1ccc(-c2nnc(SCc3nc4ccccc4[nH]3)o2)cc1,-27.4%
4,Cc1ccc(SCC(=O)OCC(=O)N(CCC#N)c2ccccc2)cc1C,-10.4%
5,O=C(NCc1ccco1)c1cc2n(n1)C(C(F)(F)F)CC(c1ccc(Br)cc1)N2 (stereo not shown),-3.23%
6,CCC(=O)NC(=S)Nc1ccc(NC(=O)COc2ccc(Cl)c(C)c2)cc1,3.25%
7,COCCNC(=S)NN(c1ccccc1)c1ccccc1,-1.18%
8,CCOC(=O)c1oc2cccc(O)c2c1CN(Cc1ccccc1)C(C)=O,-22.9%
9,CC1=CC=CC2=NC(=O)CC(C)(C(=O)N(CC(=O)NC3CCCC3)Cc3ccc(Cl)cc3)N12 (stereo not shown),22.3%
10,CCCCOc1ccc(-c2ncc(Cl)cn2)cc1,-4.65%
11,COc1ccc(CCNC(=O)C2CCN(c3nn4c(=O)cc(C)nc4s3)CC2)cc1OC,-4.87%
12,CC(CN1CCCC1)OC(=O)C(c1ccccc1)c1ccccc1.Cl (stereo not shown),-42.2%
13,Cc1ccc2nc(C)c(C(=O)N/N=C/c3ccccc3[N+](=O)[O-])cc2c1,2.51%
14,CCCn1c2ccccc2c2cn[nH]c(=O)c21,12%
15,CCc1ccccc1NC(=O)CCNS(=O)(=O)c1ccc2c(c1)CCC(=O)N2,3.47%
16,CCOC(=O)c1c(CSc2ccccc2)n(C)c2ccc(O)c(CN3CCOCC3)c12,-46.3%
17,Cc1ccc(CN2C(=O)[C@@H]3Cc4c([nH]c5ccccc45)C(C)(C)N3C2=O)cc1,7.62%
18,Cc1ccc(C(C(=O)NC(C)(C)C)N(Cc2ccccc2)C(=O)c2snc(C(N)=O)c2N)o1 (stereo not shown),1.93%
19,COc1ccc(N2C(=O)CC(N3CCN(S(=O)(=O)c4ccc(Cl)cc4)CC3)C2=O)cc1 (stereo not shown),-16.7%
20,S=C(NCc1ccncc1)Nc1ccc(Cl)c(Cl)c1,-13.1%
21,Cc1ccc(C(=O)CSc2nnc(-c3ccccc3N)n2C)cc1C,1.51%
22,CCOc1ccc(NS(=O)(=O)c2ccc(NC(=O)c3cccnc3)c(OC)c2)cc1,-8.26%
23,CN(C)/N=C/c1ccc(OC(=O)c2cccc([N+](=O)[O-])c2)cc1,-0.174%
24,Cc1ccc(CNC(=O)C2CCCN(S(C)(=O)=O)C2)cc1 (stereo not shown),16.2%
25,O=C(NCC(=O)N1CCCCC1)c1ccc(Cl)cc1Cl,5.57%
26,COc1ccc(C2CC(c3ccccc3)=NN2c2ccc(C(N)=O)cc2)cc1 (stereo not shown),14.3%
27,CC(=O)C1=C(O)C(=O)N(c2ccc(Br)cc2)C1c1cccc(F)c1 (stereo not shown),-4.01%
28,O=C(N/N=C/c1cccs1)c1cnccn1,-1.91%

row,Compound,"hERG current change (%, negative = inhibition) at 10uM"
1,COc1ccc(-c2c3c(=O)n(C)c(=O)n(C)c3cn2-c2cccc(OC)c2)cc1,16%
2,CCC1C(C#N)=C(SC)NC2=C1C(=O)CC(C)(C)C2 (stereo not shown),-6.36%
3,O=C(COc1ccccc1)Nc1nnc(S(=O)(=O)Nc2ccccc2)s1,14.8%
4,CCCc1nnc(NC(=O)CS(=O)(=O)c2ccccc2)s1,15%
5,Cc1ccc(C)c(N2CCN(C(=O)CCS(=O)(=O)c3ccc4c(c3)CCN4C(=O)C3CC3)CC2)c1,-17.6%
6,Cc1ccc(NC(=O)C2=CC=CN3CCS(=O)(=O)N=C23)cc1,-6.7%
7,C=CCN1C(=O)OC2(CCCCC2)C1(C)O (stereo not shown),3.67%
8,CCOc1cc(/C=C(\C#N)C(=O)Nc2cccc(C(=O)O)c2)ccc1OCc1ccccc1Cl,11.9%
9,C[C@]12CCC3C(CC[C@H]4CCCC[C@]34C)C1CC[C@@]2(O)CNCCO (stereo partly shown),15.6%
10,Cc1cc(C)c(S(=O)(=O)N2C=CC(C(F)(F)F)=NCC2)c(C)c1,17.7%
11,O=C(Nc1nnc(CCc2ccccc2)s1)c1ccco1,2.12%
12,CCn1c(SCC(=O)N/N=C/C=C/c2ccco2)nnc1-c1ccc(OC)cc1,-37.8%
13,Cc1cc(C)c(C(=O)C(C)OC(=O)Cc2n[nH]c(=O)c3ccccc23)cc1C (stereo not shown),4.39%
14,CCN1CCCC1CNC(=O)C(=O)Nc1ccccc1 (stereo not shown),-9.35%
15,CC1CCCN(C(=O)Cc2cn(Cc3cccc(Cl)c3)c3ccccc23)C1 (stereo not shown),-5.42%
16,Cn1nc(C(=O)NNC(=O)C(CCC(N)=O)NS(=O)(=O)c2ccc(Cl)cc2)c2ccccc2c1=O (stereo not shown),-0.0818%
17,CCOC(=O)C1(Cc2cccc(OC)c2)CCN(Cc2cccc(OCC)c2O)CC1,-56.8%
18,CCN(C(=O)c1cccc(NC(=O)c2ccccc2)c1)C1CCCCC1,-23.2%
19,CCOCCn1ccc2c(OCC(=O)Nc3ccc(OC)c(OC)c3)cccc2c1=O,3.27%
20,CN(NC(=O)c1ccco1)c1nc2ccccc2nc1C(F)(F)F,0.871%
21,O=C(Nc1ccccc1)N1CCN(S(=O)(=O)c2ccccc2)CC1,12.4%
22,C=CCN(c1ccccc1)S(=O)(=O)c1cccc(C(=O)NC2CCN(Cc3ccccc3)CC2)c1,-65.3%
23,Cc1ccc2c(Cl)c(C(=O)Nc3nn[nH]n3)sc2c1,7.7%
24,Cc1ccc(Cn2c(SCC(=O)NCC3CCCO3)nc3c2c(=O)n(C)c(=O)n3C)cc1 (stereo not shown),-28.4%
25,Cn1c(/C(C#N)=C/C2CC=CCC2)nc2ccccc21 (stereo not shown),-30.6%
26,N#Cc1ccc(C(=O)Nc2ccc3ccccc3c2)cc1,24.4%
27,CCn1cc(/C=N\NC(=O)c2ccc3c(c2)c(C)c(C)n3Cc2ccccc2)c(C)n1,-13.1%
